# The list shows a part of the results. The energies were worked out here from pooled read counts, against the library average; single values are noisy.
# Target: T1, Pho4 (S. cerevisiae) (UniProt P07270)
# T1 sequence: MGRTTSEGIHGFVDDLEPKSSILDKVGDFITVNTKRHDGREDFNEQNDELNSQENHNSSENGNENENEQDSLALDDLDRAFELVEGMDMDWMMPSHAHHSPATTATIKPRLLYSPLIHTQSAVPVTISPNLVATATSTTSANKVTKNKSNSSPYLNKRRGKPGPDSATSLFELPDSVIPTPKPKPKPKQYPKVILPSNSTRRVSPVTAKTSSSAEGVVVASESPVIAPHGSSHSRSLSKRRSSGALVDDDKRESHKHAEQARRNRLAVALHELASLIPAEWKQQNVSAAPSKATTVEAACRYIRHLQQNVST
# Experiment: relative binding free energy (BET-seq); higher = weaker binding
# Conditions: reference: library average
row,Sequence,relative binding free energy [kcal/mol]
1,TTAATCACGTGTAGAG,0.11
2,TTGGGCACGTGGCCGA,-0.15
3,TTTGCCACGTGGTTAT,-0.04
4,GGACGCACGTGGCGGG,-0.15
5,GGAGTCACGTGAGGCT,0.37
6,TTAATCACGTGCATTG,0.16
7,ATATGCACGTGGTTTC,-0.1
8,GATTACACGTGGTGTC,0.1
9,GCGGGCACGTGGTGGC,-0.17
10,TGAGCCACGTGGCGGG,-0.27
11,GTGCTCACGTGGGGAG,0.1
12,TTTGACACGTGTCTGT,0.04
13,TTCGACACGTGGGTGC,-0.06
14,AAGTGCACGTGCTGTT,-0.14
15,AAGTTCACGTGGGAGT,0.27
16,GGTTTCACGTGAAGCT,0.4
17,GGGGTCACGTGGCAAG,-0.04
18,CGGGGCACGTGAGTGA,0.07
19,TAGGGCACGTGTACTT,-0.06
20,TAGTTCACGTGTGAAA,0.15
21,TGAGACACGTGATGTT,0.11
22,CATGGCACGTGTCTGT,0
23,GAAGGCACGTGGGGGC,-0.07
24,GATTTCACGTGAAGGC,0.55
25,CTTTGCACGTGATATT,0.01

row,Sequence,relative binding free energy [kcal/mol]
1,TGAAGCACGTGGGATT,-0.11
2,TTGGGCACGTGTGTCC,0
3,TGTTCCACGTGGGCGT,-0.14
4,TATGTCACGTGATTGC,0.15
5,ATAGTCACGTGAGGAT,0.31
6,CGGTCCACGTGGTGGG,-0.14
7,TGATTCACGTGGTTCG,0.26
8,TTTCGCACGTGATGGC,0.13
9,GAGATCACGTGGTGGG,0.14
10,TGTTACACGTGACTGT,0.23
11,TTATTCACGTGAAGCG,0.24
12,ATTGTCACGTGGACTT,-0.07
13,GATGACACGTGTAGGT,0.17
14,AGTATCACGTGGGAAT,0.14
15,TGTGGCACGTGTTACG,-0.16
16,GTTTGCACGTGCGTGT,0.05
17,TCTGTCACGTGCGGTG,-0.14
18,GAGCTCACGTGGAATG,0.53
19,CGATGCACGTGTGGTT,0.04
20,GATGGCACGTGCGTTG,-0.07
21,GGATTCACGTGCTGTT,0.39
22,AGTTACACGTGTGGCT,0.27
23,GGCGTCACGTGGGTTG,0.05
24,TGATTCACGTGGGTAT,0.15
25,AATGGCACGTGAGCGT,0

row,Sequence,relative binding free energy [kcal/mol]
1,CGGTGCACGTGGAAAA,0.23
2,CTGTGCACGTGCCGGG,-0.15
3,GTGGACACGTGAATAG,0.25
4,GTTTTCACGTGTCAGG,0.29
5,GGGGGCACGTGCGACT,-0.11
6,GTTGACACGTGTGGAA,0.08
7,ACGTACACGTGGAGGG,-0.02
8,AGAATCACGTGCGGAT,0.43
9,TTATGCACGTGTTACA,0.04
10,TAGCACACGTGTTGTT,-0.03
11,GGAGACACGTGGAGGG,-0.01
12,GTACTCACGTGTTGAT,0.25
13,TCCTGCACGTGGGTTA,-0.09
14,AAGTTCACGTGTTGGG,0.31
15,GTGTTCACGTGCAGGA,0.19
16,GGTGCCACGTGGTTGA,-0.09
17,TGGTCCACGTGGGCTT,-0.05
18,CTAGGCACGTGGTGTC,-0.21
19,TTGGACACGTGGTTCG,0.03
20,TGAGACACGTGGGAGT,-0.09
21,ATAGTCACGTGTGTTC,-0.04
22,TTATGCACGTGTTAGC,0.06
23,TTGGTCACGTGCATGT,0.1
24,CTTGACACGTGGTTAA,-0.04
25,GGAATCACGTGATTTT,0.29

row,Sequence,relative binding free energy [kcal/mol]
1,ATCGTCACGTGCGTGT,0.08
2,GTTTGCACGTGAAGGT,0.38
3,AGGCGCACGTGGCGTA,-0.22
4,GAGAGCACGTGTTGGT,-0.04
5,TTATGCACGTGGACTG,-0.08
6,AGGCTCACGTGTGCGG,0.06
7,TGGGGCACGTGCGTAT,-0.24
8,GGGTGCACGTGGGTGT,-0.12
9,TGGTGCACGTGGGATT,0.07
10,TGGGGCACGTGACATG,0.05
11,AGAAACACGTGTGGAG,0.01
12,GTTGCCACGTGGTTTA,-0.1
13,AACTGCACGTGTGGGG,-0.11
14,TGTTGCACGTGTATCA,0
15,ATTGTCACGTGCCGGT,0.02
16,GGATGCACGTGGCGCG,-0.08
17,TGCTGCACGTGTTGCG,0.02
18,ACGTTCACGTGAGGTG,0.39
19,AATGGCACGTGGTTCG,-0.1
20,TTATTCACGTGTAATA,0.18
21,AGAAGCACGTGTTATG,-0.14
22,TTCGTCACGTGGGAGT,-0.01
23,CTTGGCACGTGATTGA,-0.03
24,AGAAACACGTGATGGG,0.18
25,GAGATCACGTGTGGTC,0.29

row,Sequence,relative binding free energy [kcal/mol]
1,AGGTTCACGTGACGGT,0.2
2,TTTTTCACGTGCGACT,0.27
3,AATTTCACGTGTGTAA,0.31
4,AATAACACGTGTTTTT,0.09
5,ATGTTCACGTGCTTGC,0.4
6,TTTTGCACGTGACGTT,0.09
7,TGCTGCACGTGTGGGT,0.03
8,TTACTCACGTGGTAAG,0.24
9,AATCACACGTGGTGTT,0
10,TGTGCCACGTGAATGT,0.13
11,GAGAGCACGTGGCGTG,-0.09
12,GGAGGCACGTGTCGAG,-0.11
13,GGCTGCACGTGCGCGG,-0.04
14,GGGGCCACGTGCAGTG,-0.1
15,ATATGCACGTGCTCGG,-0.09
16,GGTGACACGTGGTGAT,-0.07
17,TGTTTCACGTGCCTAG,0.3
18,GTCAACACGTGTAGGT,0.12
19,CGGTGCACGTGTATTG,-0.02
20,TTTGGCACGTGATTGA,0.02
21,AGGGGCACGTGCGAAG,-0.14
22,TGTGACACGTGTCGGA,0.13
23,CTGTTCACGTGAGGGA,0.23
24,ATAGTCACGTGAGGGA,0.21
25,TGGGGCACGTGCCGTT,-0.23

row,Sequence,relative binding free energy [kcal/mol]
1,AGGTTCACGTGATACT,0.25
2,TCTGTCACGTGAGGTC,0.25
3,CGTTACACGTGGTGGA,-0.02
4,GATTGCACGTGTTGTG,0.12
5,AGTGCCACGTGTTTGT,-0.13
6,AAGGGCACGTGCATGT,-0.2
7,CGGTGCACGTGGAATT,0.15
8,AGAGGCACGTGACATG,0.02
9,CGGAGCACGTGATAGG,0.1
10,AAAGGCACGTGTGGGA,0.02
11,AACGGCACGTGTGTTG,-0.04
12,TAGGACACGTGATTGA,0.07
13,GGTCTCACGTGAAGTA,0.6
14,GGTTCCACGTGTTATT,0.25
15,GGATACACGTGTTTTG,0.1
16,CTTCGCACGTGTGTTG,-0.14
17,GTCGTCACGTGGGGTG,0.01
18,AGCTTCACGTGTGGTC,0.19
19,TATAGCACGTGGAGGG,-0.05
20,CTTCGCACGTGGTGGT,-0.12
21,ACGTGCACGTGGGGTG,-0.25

# From the BET-seq Pho4 binding data (Le et al. 2018)
